Data taken from the supplement of paper PMC12217912.
Some of the results follow. The full chains were built here from the parent and the listed change. Inactive controls read about 0.05.

B1: TEV protease; numbered along this chain (parent)
chain: MGESLFKGPRDYNPISSSICHLTNESDGHTTSLYGIGFGPFIITNKHLFRRNNGTLVVQSLHGVFKVKDTTTLQQHLVDGRDMIIIRMPKDFPPFPQKLKFREPQREERICLVTTNFQTKSMSSMVSDTSCTFPSGDGIFWKHWIQTKDGQCGSPLVSTRDGFIVGIHSASNFTNTNNYFTSVPKNFMELLTNQEAQQWVSGWRLNADSVLWGGHKVFMVKPEEPFQPVKEATQL

Variants of: B1
Assay: raw area under fraction-flipped curve 0-4 h after induction (AUC4h, not background-subtracted), DNA-recorder readout of cleavage of the substrate (dimensionless); higher = more cleavage of the substrate by the protease variant
Details: temperature: 34 °C; time window: 0-4 h after rhamnose induction
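Also: Bxb1 expression induced with 0.2% (w/v) L-rhamnose at OD600 near 0.5, cultures sampled hourly, flipped fraction per protease–substrate barcode pair counted by paired-end Illumina sequencing.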

Variant | area with substrate ENLYFES | area with substrate ENLYFFS | area with substrate ENLYFGS | area with substrate ENLYFHS | area with substrate ENLYFIS | area with substrate ENLYFKS | area with substrate ENLYFLS | area with substrate ENLYFMS | area with substrate ENLYFNS | area with substrate ENLYFPS
P222K | 0.0591 | 0.0707 | 0.0704 | 0.0554 | 0.0561 | 0.0648 | 0.0468 | 0.0571 | 0.0457 | 0.0504
I43Y | – | 0.0512 | – | – | 0.0507 | 0.0398 | – | 0.0492 | – | 0.061
Q197T | 0.0422 | 0.0678 | 0.0478 | – | 0.0649 | – | – | 0.0598 | – | 0.0589
N206Y | – | 0.0812 | – | – | 0.051 | – | 0.0632 | 0.0406 | – | 0.0739
D91R | – | – | – | – | 0.0496 | – | – | 0.0737 | – | 0.0566
D91I | 0.0593 | 0.0663 | – | 0.0454 | 0.0516 | – | – | 0.0657 | 0.0631 | 0.051
N178D | 0.0793 | – | – | – | – | – | 0.0486 | – | 0.0588 | 0.0693
N178E | 0.0458 | 0.0685 | 0.0778 | 0.0618 | 0.0516 | – | – | 0.0789 | – | –
F95I | 0.0581 | – | – | – | – | – | – | 0.064 | – | –
F95C | – | 0.056 | 0.0521 | 0.0629 | 0.0558 | – | – | – | – | –
F140T | – | 0.0717 | 0.0475 | – | 0.0691 | – | – | 0.0489 | – | 0.0597
L5A | – | 0.0895 | – | 0.07 | 0.0278 | – | – | – | 0.0595 | –
L5C | – | 0.0644 | – | 0.054 | 0.0585 | – | 0.0464 | 0.0934 | – | 0.0526
H143F | 0.0631 | – | – | 0.048 | 0.0594 | – | – | 0.0478 | – | 0.0642
E107I | 0.0689 | 0.0615 | – | – | – | – | – | 0.0437 | – | 0.0904
P94R | 0.0659 | – | – | 0.0576 | – | 0.0656 | – | 0.0733 | – | –
K221G | 0.0691 | 0.0547 | – | 0.0299 | 0.0531 | 0.0663 | 0.0603 | 0.0608 | – | 0.0547

Variant | area with substrate ENLYFES | area with substrate ENLYFFS | area with substrate ENLYFGS | area with substrate ENLYFHS | area with substrate ENLYFIS | area with substrate ENLYFKS | area with substrate ENLYFLS | area with substrate ENLYFMS | area with substrate ENLYFNS | area with substrate ENLYFPS
K90R | 0.0746 | 0.0628 | – | – | – | – | 0.0306 | – | – | 0.0627
I110Y | 0.0669 | 0.0712 | – | – | 0.0568 | – | – | 0.0748 | – | –
W203I | 0.0521 | – | 0.0483 | 0.0573 | 0.0503 | – | 0.0578 | – | – | 0.0662
S130M | 0.0602 | 0.0739 | – | 0.0683 | 0.0492 | 0.0663 | – | 0.0679 | 0.0713 | –
G2R | 0.0773 | – | – | 0.0582 | 0.0487 | – | – | 0.0739 | – | –
G2C | – | 0.048 | – | – | 0.065 | – | – | – | – | –
S124N | 0.0719 | – | – | – | 0.0609 | 0.0753 | 0.0498 | – | 0.0629 | 0.0571
S154T | – | – | – | 0.0488 | – | 0.0738 | – | 0.071 | – | 0.0607
A207Q | 0.0626 | 0.0624 | – | 0.0555 | 0.0659 | 0.0439 | 0.0682 | 0.0622 | – | 0.0657
A207H | – | 0.043 | – | – | 0.0632 | – | – | – | – | –
S171Q | 0.0649 | 0.0745 | – | – | 0.0494 | – | – | 0.0698 | – | –
K185H | – | – | – | – | 0.101 | – | 0.0431 | 0.0739 | 0.0514 | –
W141E | 0.0462 | 0.0618 | – | – | 0.0542 | 0.0625 | 0.0502 | 0.0564 | – | –
R160L | – | – | – | – | – | 0.0512 | 0.0693 | – | – | –
N175I | – | – | – | – | 0.0505 | 0.0698 | 0.061 | 0.0648 | – | –
S123Y | 0.0532 | 0.0969 | – | – | 0.0686 | 0.0654 | – | 0.0488 | 0.0642 | 0.0634

Same assay, conditions: temperature: 34 °C; time window: 0-4 h after rhamnose induction

Variant | area with substrate ENLYFRS | area with substrate ENLYFSS | area with substrate ENLYFVS | area with substrate ENLYFYS | area with substrate ENLYFWS | area with substrate ENLYFTS | area with substrate ENLYFDS
P222K | 0.0609 | 0.0608 | 0.0581 | 0.0539 | – | – | –
I43Y | – | – | – | – | 0.0048 | – | –
Q197T | – | – | – | – | – | 0.0768 | –
N206Y | 0.0651 | – | – | – | – | 0.0747 | –
D91R | 0.024 | – | – | – | 0.0593 | 0.0544 | –
D91I | 0.0452 | – | – | – | – | – | –
N178D | 0.0556 | – | – | 0.0665 | – | 0.0537 | 0.0566
N178E | – | 0.0475 | – | 0.0651 | – | – | –
F95I | 0.0421 | – | – | 0.0443 | – | – | –
F95C | – | – | 0.0623 | – | – | – | –
F140T | – | – | – | 0.0644 | 0.0579 | 0.0632 | –
L5A | – | – | – | – | 0.0953 | – | –
L5C | 0.0483 | – | – | – | – | – | –
H143F | 0.0605 | 0.0648 | – | – | – | 0.0664 | –
E107I | 0.0447 | – | – | – | 0.0883 | 0.0649 | –
P94R | – | 0.0465 | – | 0.0575 | 0.0512 | 0.0351 | –
K221G | – | 0.0608 | – | – | – | 0.0598 | 0.0372

Variant | area with substrate ENLYFRS | area with substrate ENLYFSS | area with substrate ENLYFVS | area with substrate ENLYFYS | area with substrate ENLYFWS | area with substrate ENLYFTS | area with substrate ENLYFDS
K90R | – | – | – | 0.0999 | – | – | –
I110Y | 0.0464 | – | 0.068 | – | 0.0461 | – | –
W203I | 0.0582 | – | – | 0.0616 | – | 0.0544 | –
S130M | 0.0473 | 0.0697 | 0.057 | 0.0628 | – | 0.0429 | –
G2R | 0.0626 | 0.0689 | 0.0495 | – | 0.0535 | 0.0567 | –
G2C | – | – | 0.053 | – | – | – | –
S124N | – | 0.0656 | 0.0589 | 0.0536 | – | – | –
S154T | – | 0.0567 | – | 0.053 | 0.0659 | 0.0534 | –
A207Q | – | 0.0652 | – | – | 0.0534 | – | 0.0574
A207H | 0.0777 | – | – | 0.0519 | – | 0.06 | –
S171Q | – | – | – | – | 0.0626 | – | –
K185H | – | – | 0.041 | 0.0625 | 0.0846 | 0.065 | –
W141E | 0.0596 | 0.0562 | – | – | – | – | –
R160L | – | – | – | 0.0562 | – | – | –
N175I | – | 0.0554 | 0.0803 | 0.0576 | – | 0.0694 | –
S123Y | – | – | 0.0634 | 0.0508 | – | 0.0059 | –
G8Y | – | – | 0.0715 | 0.0193 | – | – | –
